From a protein production outcome set (Wang et al. 2014) come the findings set out here.

This series in a line: label from the status in PepcDB records.
On to “MAPNGTASSFCLDSTACKITITVVLAVLILITVAGNVVVCLAVGLNRRLRNLTNCFIVSLAITDLLLGLLVLPFSAIYQLSCKWSFGKVFCNIYTSLDVMLCTASILNLFMISLDRYCAVMDPLRYPVLVTPVRVAISLVLIWVISITLSFLSIHLGWNSRNETSKGNHTTSKCKVQVNEVYGLVDGLVTFYLPLLIMCITYYRIFKVARDQAKRINHISSWKAATIREHKATVTLAAVMGAFIICWFPYFTAFVYRGLRGDDAINEVLEAIVLWLGYANSALNPILYAALNRDFRTGYQQLFCCRLANRNSHKTSLRSNASQLSRTQSREPRQQEEKPLKLQVWSGTEVTAPQGATDR”, for which the protein production entry is given as “failed”.

Regarding “MDLPVNLTSFSLSTPSPLETNHSLGKDDLRPSSPLLSVFGVLILTLLGFLVAATFAWNLLVLATILRVRTFHRVPHNLVASMAVSDVLVAALVMPLSLVHELSGRRWQLGRRLCQLWIACDVLCCTASIWNVTAIALDRYWSITRHMEYTLRTRKCVSNVMIALTWALSAVISLAPLLFGWGETYSEGSEECQVSREPSYAVFSTVGAFYLPLCVVLFVYWKIYKAAKFRVGSRKTNSVSPISEAVEVKDSAKQPQMVFTVRHATVTFQPEGDTWREQKEQRAALMVGILIGVFVLCWIPFFLTELISPLCSCDIPAIWKSIFLWLGYSNSFFNPLIYTAFNKNYNSAFKNFFSRQH”, the protein production result is given as “failed”.

For the sequence “MEPHDSSHMDSEFRYTLFPIVYSIIFVLGVIANGYVLWVFARLYPCKKFNEIKIFMVNLTMADMLFLITLPLWIVYYQNQGNWILPKFLCNVAGCLFFINTYCSVAFLGVITYNRFQAVTRPIKTAQANTRKRGISLSLVIWVAIVGAASYFLILDSTNTVPDSAGSGNVTRCFEHYEKGSVPVLIIHIFIVFSFFLVFLIILFCNLVIIRTLLMQPVQQQRNAEVKRRALWMVCTVLAVFIICFVPHHVVQLPWTLAELGFQDSKFHQAINDAHQVTLCLLSTNCVLDPVIYCFLTKKFRKHLTEKFYSMRSSRKCSRATTDTVTEVVVPFNQIPGNSLKN”, the protein production result is recorded as “failed”.

In the case of “MNTINIAKNDFSDIELAAIPFNTLADHYGERLAREQLALEHESYEMGEARFRKMFERQLKAGEVADNAAAKPLITTLLPKMIARINDWFEEVKAKRGKRPTAFQFLQEIKPEAVAYITIKTTLACLTSADNTTVQAVASAIGRAIEDEARFGRIRDLEAKHFKKNVEEQLNKRVGHVYKKAFMQVVEADMLSKGLLGGEAWSSWHKEDSIHVGVRCIEMLIESTGMVSLHRQNAGVVGQDSETIELAPEYAEAIATRAGALAGISPMFQPCVVPPKPWTGITGGGYWANGRRPLALVRTHSKKALMRYEDVYMPEVYKAINIAQNTAWKINKKVLAVANVITKWKHCPVEDIPAIEREELPMKPEDIDMNPEALTAWKRAAAAVYRKDKARKSRRISLEFMLEQANKFANHKAIWFPYNMDWRGRVYAVSMFNPQGNDMTKGLLTLAKGKPIGKEGYYWLKIHGANCAGVDKVPFPERIKFIEENHENIMACAKSPLENTWWAEQDSPFCFLAFCFEYAGVQHHGLSYNCSLPLAFDGSCSGIQHFSAMLRDEVGGRAVNLLPSETVQDIYGIVAKKVNEILQADAINGTDNEVVTVTDENTGEISEKVKLGTKALAGQWLAYGVTRSVTKRSVMTLAYGSKEFGFRQQVLEDTIQPAIDSGKGLMFTQPNQAAGYMAKLIWESVSVTVVAAVEAMNWLKSAAKLLAAEVKDKKTGEILRKRCAVHWVTPDGFPVWQEYKKPIQTRLNLMFLGQFRLQPTINTNKDSEIDAHKQESGIAPNFVHSQDGSHLRKTVVWAHEKYGIESFALIHDSFGTIPADAANLFKAVRETMVDTYESCDVLADFYDQFADQLHESQLDKMPALPAKGNLNLRDILESDFAFA”, the protein production entry was “not failed”.

On to “MQAVDNLTSAPGNTSLCTRDYKITQVLFPLLYTVLFFVGLITNGLAMRIFFQIRSKSNFIIFLKNTVISDLLMILTFPFKILSDAKLGTGPLRTFVCQVTSVIFYFTMYISISFLGLITIDRYQKTTRPFKTSNPKNLLGAKILSVVIWAFMFLLSLPNMILTNRQPRDKNVKKCSFLKSEFGLVWHEIVNYICQVIFWINFLIVIVCYTLITKELYRSYVRTRGVGKVPRKKVNVKVFIIIAVFFICFVPFHFARIPYTLSQTRDVFDCTAENTLFYVKESTLWLTSLNACLDPFIYFFLCKSFRNSLISMLKCPNSATSLSQDNRKKEQDGGDPNEETPM”, for which the protein production result is on record as “failed”.

For the sequence “MVFSAVLTAFHTGTSNTTFVVYENTYMNITLPPPFQHPDLSPLLRYSFETMAPTGLSSLTVNSTAVPTTPAAFKSLNLPLQITLSAIMIFILFVSFLGNLVVCLMVYQKAAMRSAINILLASLAFADMLLAVLNMPFALVTILTTRWIFGKFFCRVSAMFFWLFVIEGVAILLIISIDRFLIIVQRQDKLNPYRARVLIAVSWATSFCVAFPLAVGNPDLQIPSRAPQCVFGYTTNPGYQAYVILISLISFFIPFLVILYSFMGILNTLRHNALRIHSYPEGICLSQASKLGLMSLQRPFQMSIDMGFKTRAFTTILILFAVFIVCWAPFTTYSLVATFSKHFYYQHNFFEISTWLLWLCYLKSALNPLIYYWRIKKFHDACLDMMPKSFKFLPQLPGHTKRRIRPSAVYVCGEHRTVV”, the protein production result is “failed”.
